Like-named read-outs stand apart in the source and are kept apart here.
Key:
[1] = target: T1, monkey CD19 on HEK293T-monkey CD19 cells (monkey); test: FACS on HEK293T-monkey CD19 cells
T1 construct: whole, on cells
Experimental: (§1) After the digestion was terminated, the cells were washed 2 times with a PBS buffer; and for suspension cell Raji, the supernatant of the medium was discarded by directly centrifugation, and the cell pellet was washed 2 times with PBS. After counting the cells in the previous step, the cell pellet was resuspended with [PBS+2% (w/w) BSA] blocking solution to 2×10⁶ cells/ml, and added to a 96-well FACS reaction plate at 50 μl/well, and then the sample to be tested was added at 50 μl/well, and incubated on ice for 2 h. The obtained mixture was centrifuged and washed 3 times with a PBS buffer. […] The obtained mixture was centrifuged and washed 5 times with a PBS buffer, and FACS (FACS Canto™, purchased from BD Company) was used for detection and result analysis. Data analysis was performed by software (FlowJo) to obtain the mean fluorescence intensity (MFI) of the cells. And then software (GraphPad Prism8) was used for analysis, data fitting, and EC50 value calculation. […] The same method was used to detect the binding of the chimeric antibodies to endogenous CD19-negative cells, MoLT4 cells (purchased from ATCC, CRL-1582), and CHO-K1 cells.
(§2) HEK293T-monkey CD19 cells were subjected to FACS detection and data analysis according to the method in example 5.2. […] The same method was used to detect binding of the chimeric antibodies to HEK293T cells.

[2] = target: T1, monkey CD19 on HEK293T-monkey CD19 cells; test: FACS on HEK293T-monkey CD19 cells; remark: listed apart in the source
Experimental: as §1, §2

[3] = target: T2, cynomolgus monkey CD19 on peripheral blood B cells (cynomolgus monkey (Macaca fascicularis), UniProt A0A2K5W8L9 20-557); test: FACS, cynomolgus PBMC, CD20+ B cells
T2 construct: whole, on cells; also called cynomolgus monkey B cells
T2 sequence: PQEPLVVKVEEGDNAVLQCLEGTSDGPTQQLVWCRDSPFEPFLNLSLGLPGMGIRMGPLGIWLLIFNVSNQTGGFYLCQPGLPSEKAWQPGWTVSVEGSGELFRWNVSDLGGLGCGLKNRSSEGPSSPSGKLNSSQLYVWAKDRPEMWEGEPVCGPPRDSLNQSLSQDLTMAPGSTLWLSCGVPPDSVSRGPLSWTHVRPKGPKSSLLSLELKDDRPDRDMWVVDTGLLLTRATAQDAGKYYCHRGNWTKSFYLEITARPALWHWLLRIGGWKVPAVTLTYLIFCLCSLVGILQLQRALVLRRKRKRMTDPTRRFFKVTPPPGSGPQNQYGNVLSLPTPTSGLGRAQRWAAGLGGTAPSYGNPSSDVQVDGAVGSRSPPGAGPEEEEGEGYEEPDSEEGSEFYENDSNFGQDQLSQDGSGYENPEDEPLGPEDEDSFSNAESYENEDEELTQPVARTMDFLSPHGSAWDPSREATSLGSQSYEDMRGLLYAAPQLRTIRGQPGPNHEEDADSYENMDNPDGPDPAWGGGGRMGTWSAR
Experimental: The monkey peripheral blood mononuclear cells were extracted from fresh cynomolgus monkey peripheral blood (purchased from Shanghai Medicilon Inc.) according to the instructions of Ficoll-Paque Plus (purchased from GE Healthcae, catalog number: 171440-02). After the cell suspension was centrifuged, the cells were resuspended in PBS containing 1% BSA, and then the cells were counted. […] The mixture was incubated for 1 h at room temperature. After washing the cells three times, APC-labeled secondary antibody anti-human IgG Fc (catalog number: 409306, purchased from Biolegend) was added. After incubation at room temperature in the dark for 30 minutes, the cells were washed 5 times, gently resuspended with PBS containing 1% BSA, and detected and analyzed by FACS (FACS Canto™, purchased from BD Company), in which CD20 was used as a marker of B cells to gate the CD20-positive B cell population, the proportion of the chimeric antibody-labeled positive cells was analyzed, and the proportion of the chimeric antibody positive cell population to B cell population was calculated after treatments with the chimeric antibodies at the concentrations of 100 nM, 10 nM and 1 nM, respectively.

B1: 9G8-hIgG1 (antibody)
heavy: EVQLVQSGAEVKKPGESLKISCKGSGYSFTSYWIGWVRQMPGKGLEWMGIIYPGDSDTRYSPSFQGQVTISADKSISTAYLQWSSLKASDTAMYYCARGVSGIYNLHGFDIWGQGTLVTVSS[human IgG1 constant region cut from this listing]
light: DIQMTQSPSSLSASVGDRVTITCRASQSISSYLNWYQQKPGKAPKLLIYAASSLQSGVPSRFSGSGSGTDFTLTISSLQPEDFATYYCQQGRFGSPFTFGQGTKVEIKRTVAAPSVFIFPPSDEQLKSGTASVVCLLNNFYPREAKVQWKVDNALQSGNSQESVTEQDSKDSTYSLSSTLTLSKADYEKHKVYACEVTHQGLSSPVTKSFNRGEC
notes: control antibody
- EC50 [1]: 3 nM
- Maximum mean fluorescence intensity [1]: 85700
- EC50 [2]: 3.64 nM
- Maximum mean fluorescence intensity [2]: 28800
- Proportion of chimeric antibody positive cells to B cells (%) at 1 nM [3]: 3%
- Proportion of chimeric antibody positive cells to B cells (%) at 10 nM [3]: 14%
- Proportion of chimeric antibody positive cells to B cells (%) at 100 nM [3]: 71%
